From article PMC4336329 (PLoS ONE, 2015)
Screen size: about 310,000 compounds; about 14,000 (4.5%) showed an effect of 50% or more. Effects have a minus sign here. This is one part of the list.

target: human ether-à-go-go-related gene (hERG) potassium channel (human, UniProt Q12809); assay: primary screen, population patch clamp on CHO cells stably expressing hERG
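Note: peak tail current of the secondary pulse compared with the same well before compound.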

Sequence of human ether-à-go-go-related gene (hERG) potassium channel (Q12809 whole entry, looked up): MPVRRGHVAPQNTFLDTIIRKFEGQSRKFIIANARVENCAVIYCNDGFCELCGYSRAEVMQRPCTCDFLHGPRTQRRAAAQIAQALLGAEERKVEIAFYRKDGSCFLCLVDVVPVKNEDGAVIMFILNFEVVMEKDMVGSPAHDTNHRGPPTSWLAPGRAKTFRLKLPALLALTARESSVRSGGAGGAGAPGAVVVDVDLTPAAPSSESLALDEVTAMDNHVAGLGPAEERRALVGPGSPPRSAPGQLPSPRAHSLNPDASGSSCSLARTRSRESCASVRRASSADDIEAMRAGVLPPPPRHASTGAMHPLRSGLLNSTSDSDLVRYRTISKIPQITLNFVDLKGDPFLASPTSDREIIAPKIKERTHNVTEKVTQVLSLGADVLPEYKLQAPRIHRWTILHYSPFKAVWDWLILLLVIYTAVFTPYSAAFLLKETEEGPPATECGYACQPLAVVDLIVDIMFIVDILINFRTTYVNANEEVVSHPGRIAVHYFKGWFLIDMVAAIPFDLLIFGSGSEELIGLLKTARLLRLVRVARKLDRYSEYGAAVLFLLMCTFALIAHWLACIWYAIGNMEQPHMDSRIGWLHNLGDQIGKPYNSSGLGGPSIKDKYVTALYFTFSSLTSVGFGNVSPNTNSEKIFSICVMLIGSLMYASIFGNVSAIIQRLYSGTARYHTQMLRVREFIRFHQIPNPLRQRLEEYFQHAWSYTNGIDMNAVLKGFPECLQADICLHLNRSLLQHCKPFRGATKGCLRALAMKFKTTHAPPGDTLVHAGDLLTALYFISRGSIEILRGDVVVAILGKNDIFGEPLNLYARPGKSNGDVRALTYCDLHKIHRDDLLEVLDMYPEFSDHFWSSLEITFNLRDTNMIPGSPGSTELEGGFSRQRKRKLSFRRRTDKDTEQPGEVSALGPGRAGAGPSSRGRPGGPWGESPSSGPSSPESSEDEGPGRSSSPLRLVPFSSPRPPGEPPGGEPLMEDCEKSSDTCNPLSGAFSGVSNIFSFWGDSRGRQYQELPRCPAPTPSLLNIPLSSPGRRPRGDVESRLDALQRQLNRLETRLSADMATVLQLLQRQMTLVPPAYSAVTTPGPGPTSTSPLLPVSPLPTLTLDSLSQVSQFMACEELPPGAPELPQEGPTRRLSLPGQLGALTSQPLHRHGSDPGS

| Structure (SMILES) | hERG current change (%, negative = inhibition) at 10uM [%] |
| --- | --- |
| CCN(CC)c1ccc(NC(=O)c2ccc(=O)[nH]c2)cc1S(=O)(=O)Nc1ccccc1OC | 7.16 |
| CC(C)CSc1nc(N2CCOCC2)c2c(c1C#N)CC(C)(C)SC2 | -2.91 |
| CC(C)N(C(=O)Cn1c(SCC(=O)N2CCN(c3ccccc3)CC2)nc2ccccc21)C(C)C | 16.2 |
| COc1ccc(-c2ccc(CCC(=O)O)n2CC(C)C)cc1 | 1.24 |
| CCc1ccc(OCC(=O)N2CCN(CC(=O)Nc3ccccc3Cl)CC2)cc1 | -80.7 |
| C/C(=N\NC(=O)CC(C)C)c1ccc(Cl)c(Cl)c1 | 30.7 |
| O=C(COC(=O)c1ccccc1Cl)Nc1cccnc1Cl | 1.05 |
| Cc1ccccc1Nc1cc(C(=O)NCc2ccco2)c2ccccc2n1 | 20.3 |
| CC(NC(=O)/C(C#N)=C1\N=C(NC(=O)c2ccco2)c2ccccc21)c1ccccc1 (stereo not shown) | -9.42 |
| COc1ccccc1N1CCN(S(=O)(=O)c2ccc(Cl)s2)CC1 | 0.669 |
| Cc1n[nH]c(=O)c2c(NC(=O)CSc3nnnn3-c3ccc(O)cc3)oc(C)c12 | 26.3 |
| CCCCNC(=O)CC1N=C2c3ccccc3N=C(SCC(=O)Nc3ccccc3C)N2C1=O (stereo not shown) | -0.929 |
| O=C(c1sc2ccccc2c1Cl)N(Cc1cccs1)C1CCS(=O)(=O)C1 (stereo not shown) | -10.6 |
| CC(=O)CCCC(NS(=O)(=O)CCC(Cl)(Cl)Cl)c1ccccc1 (stereo not shown) | -20.4 |
| Cc1ccc(NC(=O)CCC(=O)NNC(=O)c2ccco2)cc1C | -2.2 |
| COc1ccc(-c2nnc(SCC(=O)N3CCc4ccccc4C3)o2)cc1 | -33.6 |
| COc1cc(OC)cc(C(=O)NCCC(=O)NCCc2ccc(OC)c(OC)c2)c1 | 2.89 |
| FC(F)(F)c1cc(-c2ccccc2)nc(N2CCCCCC2)n1 | 20.5 |
| CSCC[C@H](NC(=O)Nc1ccc(Oc2ccccc2)cc1)C(=O)O | 26.1 |
| CCOc1ccc(CCNC(=O)c2cccc(S(=O)(=O)N3CCCC3)c2)cc1OCC | -26 |
| CC(OC(=O)c1ccco1)C(=O)NCc1ccc2c(c1)OCO2 (stereo not shown) | -0.231 |
| Cc1ccccc1NC(=O)Cn1nc(C(=O)O)c2ccccc2c1=O | 9.6 |

| Structure (SMILES) | hERG current change (%, negative = inhibition) at 10uM [%] |
| --- | --- |
| Cc1cccc(OCCCn2ccnc2)c1 | -14.9 |
| O=c1c2sccc2nc(SCc2cc(=O)n3cc(Cl)ccc3n2)n1-c1ccc(F)cc1 | -3.21 |
| CCN(CC)S(=O)(=O)c1ccc(OC)c(NC(=O)c2cn(CC)c3nc(C)ccc3c2=O)c1 | 26.7 |
| Cc1ccc(OCC(=O)NC(=S)Nc2cccc(C)n2)cc1 | 4.25 |
| COc1cc(/C=N/n2nnnc2N)ccc1OC(C)=O | 14.8 |
| Cc1ccccc1NC(=O)c1ccc(OCC(=O)Nc2ccccc2F)cc1 | 16 |
| O=C(CN1CCN(S(=O)(=O)c2ccc(Br)cc2)CC1)N/N=C/c1ccco1 | -56.9 |
| COCCCN1C(=O)C(O)=C(C(C)=O)C1c1cccc(F)c1 (stereo not shown) | 7.18 |
| O=C(NC(=S)N1CCN(c2ccccc2)CC1)c1ccccc1 | 1.58 |
| Cc1sc2ncnc(SCC(=O)c3ccc(O)cc3O)c2c1C | 19.7 |
| COC(=O)/C=C/c1ccc(-n2ccnc2)cc1 | -22.5 |
| CCCCCC(=O)NNC(=O)c1ccc(F)cc1 | 8.69 |
| CC(C)(C)N1CC(COc2ccccc2)OC1=O (stereo not shown) | -8.98 |
| CS(=O)(=O)c1ccc(Cl)c(C(=O)NC2CCSc3ccccc32)c1 (stereo not shown) | 5.95 |
| COP(=O)(NS(=O)(=O)c1ccccc1)OC | 19.9 |
| Cc1ccc(S(=O)(=O)N2CCOCC2)cc1C(=O)Nc1nc2ccccc2[nH]1 | -10.6 |
| C=CCn1c(O)c(C(C)=NCCN2CCN(C(=S)NC)CC2)c(=O)[nH]c1=O | 0.328 |
| O=C(COC(=O)C1COc2ccccc2O1)NC(=O)Nc1ccc2c(c1)OCCO2 (stereo not shown) | -6.36 |
| CCn1nc(C(=O)OCC(=O)Nc2ncc(Cl)c(C)c2Cl)c2ccccc2c1=O | -2.63 |
| COc1cccc(-c2nn(C)c3sc(C(=O)Nc4ccc5c(c4)OCCO5)cc23)c1 | 20.4 |
| Clc1cccc(OCc2nnc(-c3ccccc3Br)o2)c1 | 21.9 |
| O=C(COc1ccc2c3c(c(=O)oc2c1)CCCC3)NCc1ccccn1 | 4.11 |

| Structure (SMILES) | hERG current change (%, negative = inhibition) at 10uM [%] |
| --- | --- |
| O=C(Cc1ccccc1)Nc1cccc(NC(=O)c2cccs2)c1 | 6.58 |
| CCN1CCN(C(=S)Nc2ccc3nc(N4CCN(CC)CC4)cc(C)c3c2)CC1 | -13.9 |
| CN1C(=O)N(C)C2(c3ccccc3)N(C)C(=O)NC12c1ccccc1 (stereo not shown) | -22.9 |
| CC(C)(C)c1ccc(/C=C2/SC(N3CCCC3)=NC2=O)cc1 | -51.1 |
| COc1ccccc1N1CCN(CC(O)COc2ccc3c(C)cc(=O)oc3c2)CC1 (stereo not shown) | -24.7 |
| Cl.O=C(CNCc1cccs1)Nc1ccc(S(=O)(=O)N2CCCCC2)cc1 | -70.9 |
| CN(C)/C=C1\N=C(c2ccc3c(c2)OCO3)OC1=O | 14.8 |
| CCC(C)Cn1c(C)nc2ccccc21 (stereo not shown) | 2.37 |
| COc1ccc(NC2CCCN(C(=O)c3csc(C)n3)C2)cc1 (stereo not shown) | 9.97 |
| C=CCn1c(=O)c2c(nc3n2CC(C)CN3c2cccc(OC)c2)n(C)c1=O (stereo not shown) | -21.7 |
| NC(=O)CC(NC(=O)c1ccccc1)c1ccc(N2CCc3ccccc3C2)c([N+](=O)[O-])c1 (stereo not shown) | -3.72 |
| O=S(=O)(c1cccc2nonc12)N1CCN(c2ccccc2F)CC1 | 4.42 |
| Nc1ncc(Br)cc1N=Cc1ccccc1 | 3.57 |
| O=C(O)CCCCCN1C(=O)C(O)=C(C(=O)/C=C/c2ccccc2)C1c1ccc2c(c1)OCO2 (stereo not shown) | 1.89 |
| CCOC(=O)C1CCN(C(=O)c2cc3cc4ccc(C)cc4nc3o2)CC1 | -11.7 |
| CCOC(=O)CSC1=NC(=O)/C(=C/c2ccc(OC)cc2)S1 | 21.5 |
| O=C(O)c1cnn(-c2ccccc2)c1-n1cccc1 | 9 |
| O=c1c2ccccc2nc(/C=C/c2cccc([N+](=O)[O-])c2)n1CCCO | -43 |
| CCN1CCN(Cc2ccc(OC(F)(F)F)cc2)CC1 | -26.6 |
| COc1ccc(CCNC(=O)COc2nncc3ccccc23)cc1 | -0.573 |
| Cc1[nH]n(-c2ccccc2)c(=O)c1/C=C1\C=NN=C1c1ccccc1 | 6.9 |
| CCOC(=O)c1ccc(N2C(=O)c3n[nH]c(C)c3C2c2cccnc2)cc1 (stereo not shown) | -17.2 |

| Structure (SMILES) | hERG current change (%, negative = inhibition) at 10uM [%] |
| --- | --- |
| O=C(COC(=O)c1cc2ccccc2cc1O)Nc1cccnc1Cl | 11.2 |
| CCc1cc2c(=O)oc(-c3ccc(F)cc3)nc2s1 | 16.4 |
| COC(=O)C1=C(c2cc3ccccc3o2)C[C@@H]2CC[C@H]1N2C(=O)NCc1ccccc1 | -26.2 |
| CCOC(=O)c1cnn(-c2ccccc2)c1-n1cccc1 | -8.27 |
| Cc1ccc(OCC(=O)Nc2ccc(N3CCN(C(=O)c4ccco4)CC3)cc2)c(C)c1 | -32.1 |
| Cc1c(C)c2c(OCC(=O)N3CCC(C(N)=O)CC3)cc3c(c2oc1=O)CCC(C)(C)O3 | -8.3 |
| CCC(C)N(C(=O)c1csnn1)C(C(=O)NC(C)(C)C)c1ccccc1 (stereo not shown) | 2.13 |
| CC1(C)CN(C(Cc2ccccc2)C(N)=O)C1=O (stereo not shown) | 14.6 |
| O=C(NCc1ccco1)c1ccc(Cn2c(=S)[nH]c3ccccc3c2=O)cc1 | 40.1 |
| O=C(NNC(=O)C(Cl)Cl)c1cnn(-c2ccccc2)c1C(F)(F)F | 14.2 |
| Brc1c(CSc2nc3ccccc3s2)nc2ncccn12 | -69.7 |
| O=C(CSC1=NNC(c2ccccn2)S1)Nc1ccccc1 (stereo not shown) | 18.2 |
| Cc1nc2ccccc2c(=O)n1/N=C/c1cn[nH]c1-c1ccccc1 | -10.7 |
| CC1(C)CC(=O)C=C(N2CCCC2)C1 | 17.5 |
| O=C(COC(=O)CC1CC2CCC1C2)Nc1c(F)cccc1F (stereo not shown) | 14.3 |
| O=C(NC1CC2CCCC(C1)N2Cc1cccs1)N1CCOCC1 (stereo not shown) | -6.2 |
| Cn1c(N)c(S(=O)(=O)N2CCN(c3cccc(Cl)c3)CC2)c(=O)n(C)c1=O | -0.261 |
| COc1ccc2c(c1OC)C(C1c3c(cc4c(c3OC)OCO4)CCN1C)OC2=O (stereo not shown) | -7.14 |
| COc1ccccc1NC(CC(=O)c1ccccc1)C(=O)OCC(=O)c1ccc(C)c(C)c1 (stereo not shown) | -10.9 |
| O=C(Nc1ccc(N2CCN(C(=O)c3ccccc3)CC2)cc1)c1cc2ccccc2o1 | -17.3 |
| CCCc1ccc(C#N)c(SC2CC(=O)N(c3ccc(OC)cc3)C2=O)n1 (stereo not shown) | 21.8 |
| FC(F)(F)c1ccc(-n2cnc3ccccc32)nc1 | -10.6 |
